Where a name gives a salt, the structure may show the parent alone. Read-outs that look alike come from different tables or passages of the source.
Legend:
[1] = tested on: CD47 deficient (CD47 KO) Jurkat T cells; conditions: for AC50: read-out: AC50 (μM) CD47 KO, cell viability
WT Jurkat cells = conditions: for AC50: read-out: AC50 (μM) WT
[2] = CD47 KO Jurkat T cells, 48 hours, 10^-9 to 10^-4 M, CellTiter-Glo
[3] = WT Jurkat cells, 48 hours, 10^-9 to 10^-4 M, CellTiter-Glo
[4] = difference CD47 KO minus WT Jurkat cells, 48 hours
[5] = CD47 KO Jurkat T cells, 48 hours
[6] = log AC50 difference CD47 KO minus WT
[7] = WT Jurkat cells, cell viability, 48 hours

| Compound | Maximal Response CD47 KO (RLU) [1, 2] | Maximal Response WT (RLU) (WT Jurkat cells; [3]) | also measured |
| --- | --- | --- | --- |
| C[C@]12CCC(=O)C=C1CC[C@@H]1[C@@H]2CC[C@@]2(C)[C@H]1CC[C@]2(C)O [Methyltestosterone] | – | – | Maximal Response CD47 KO (RLU) [1]: 45.934 RLU; Maximal Response WT (RLU) (WT Jurkat cells): 19.391 RLU |
| COc1cc2cc(c1Cl)N(C)C(=O)C[C@H](OC(=O)C(C)C)[C@]1(C)O[C@@H]1[C@H](C)[C@@H]1C[C@@](O)(NC(=O)O1)[C@H](OC)/C=C/C=C(\C)C2 [Ansamitocin P3] | – | – | Maximal Response CD47 KO (RLU) [1]: 32.337 RLU; Δ Maximal Response CD47KO-WT [1]: 26.605; Maximal Response WT (RLU) (WT Jurkat cells): 5.732 RLU |
| CCC[C@H](Nc1nc(-c2ccc(NC(=O)NCC)c(OC)c2)ncc1C)c1cccnc1 [Lexibulin hydrochloride] | 46.894 RLU | 13.896 RLU | – |
| Cc1ccc(NC(=O)C2(c3ccc4c(c3)OC(F)(F)O4)CC2)nc1-c1cccc(C(=O)O)c1 [Lumacaftor] | 34.976 RLU | 4.41 RLU | – |
| Cc1ccc2nc(NCCN)c3ncc(C)n3c2c1 [BMS-345541] | 23.272 RLU | 1.923 RLU | – |
| COc1ccc2c(c1OC)C(=O)O[C@@H]2[C@H]1c2c(cc3c(c2OC)OCO3)CCN1C [Noscapine] | 38.52 RLU | 10.875 RLU | – |
| CN1C(C(=O)Nc2ccccn2)=C(O)c2ccccc2S1(=O)=O [Piroxicam] | 106.754 RLU | 80.791 RLU | – |
| N#C/C(=C\c1ccc(O)c(O)c1)C(=O)NCc1ccccc1 [Tyrphostin B42] | 67.867 RLU | 35.116 RLU | Δ Maximal Response CD47KO-WT [1, 4]: 32.751 |
| O=C1C=CC[C@@H]2[C@H]3CCCN4CCC[C@@H](CN12)[C@@H]34 [Sophocarpine] | 83.612 RLU | 40.909 RLU | – |
| CC(C)(Oc1ccc(C2CC2(Cl)Cl)cc1)C(=O)O (stereo not shown) [Ciprofibrate] | 94.451 RLU | 12.532 RLU | – |
| CC(C)[C@H]1CC[C@H](C(=O)N[C@H](Cc2ccccc2)C(=O)O)CC1 [Nateglinide] | 111.519 RLU | 76.528 RLU | – |
| CCCCC[C@H](O)/C=C/[C@H]1[C@H](O)CC(=O)[C@@H]1C/C=C\CCCC(=O)O [Prostaglandin E2] | 68.744 RLU | 41.698 RLU | Δ Maximal Response CD47KO-WT [1, 4]: 27.046 |
| SN-38 | – | – | Δ LogAC50 CD47KO-WT [1]: 1.9; cytotoxicity in CD47 deficient versus wild-type Jurkat cells (FIGS. 14, 15) ([1]; 48 hours, increasing concentrations): protected; AC50 [1, 5]: 0.296 µM; AC50 (WT Jurkat cells): 0.0037 µM |
| C[C@@]1(C(=O)Nc2ccc(F)nc2)CCCN1c1nc(Nc2cc(C3CC3)n[nH]2)c2cccn2n1 [BMS-754807] | 82.867 RLU | 47.422 RLU | – |
| CCOC(=O)C1=C(O)C(=O)N(Cc2ccccc2)C1 [EBPC] | 122.465 RLU | 100.134 RLU | Δ Maximal Response CD47KO-WT [1, 4]: 22.331 |
| Cn1cc(-c2ccc3ncc(Cc4ccc5ncccc5c4)n3n2)cn1 [NVP-BVU-972] | 80.831 RLU | 49.524 RLU | Δ Maximal Response CD47KO-WT [1, 4]: 31.307 |
| CCOc1cc(N2CCC(O)CC2)ccc1Nc1ncc2c(n1)N(C)c1ccccc1C(=O)N2C [XMD8-92] | 39.731 RLU | 15.283 RLU | Δ Maximal Response CD47KO-WT [1, 4]: 24.448 |
| CC1(C)S[C@@H]2[C@H](NC(=O)[C@H](N)c3ccc(O)cc3)C(=O)N2[C@H]1C(=O)[O-].[Na+] [Amoxicillin sodium] | 61.467 RLU | 27.97 RLU | Δ Maximal Response CD47KO-WT [1, 4]: 33.497 |
| CC(C)[C@H](NS(=O)(=O)c1ccc(-c2ccc(Br)cc2)cc1)C(=O)O [PD-166793] | 46.846 RLU | 10.39 RLU | Δ Maximal Response CD47KO-WT [1, 4]: 36.456 |
| CSc1cccc(Nc2ncc3cc(-c4c(Cl)cccc4Cl)c(=O)n(C)c3n2)c1 [PD-173955] | 35.348 RLU | 8.871 RLU | Δ Maximal Response CD47KO-WT [1, 4]: 26.477 |
| NC(=O)c1ncn([C@@H]2O[C@H](CO)[C@@H](O)[C@H]2O)n1 [Ribavirin] | 113.259 RLU | 82.278 RLU | – |
| NC1(c2ccc(-c3nc4ccn5c(=O)[nH]nc5c4cc3-c3ccccc3)cc2)CCC1 [MK-2206] | 30.241 RLU | 1.791 RLU | – |

| Compound | Maximal Response CD47 KO (RLU) [1, 2] | Maximal Response WT (RLU) (WT Jurkat cells; [3]) | also measured |
| --- | --- | --- | --- |
| O=C1c2c(O)cc(O)cc2O[C@H](c2cc(O)c(O)c(O)c2)[C@H]1O [Dihydromyricetin] | 36.707 RLU | 15.036 RLU | – |
| COc1c(C)c2c(c(O)c1C/C=C(\C)CCC(=O)O)C(=O)OC2 [Mycophenolic acid] | 58.678 RLU | 19.34 RLU | – |
| C1COC(NC(C2CC2)C2CC2)=N1 [Rilmenidine] | 87.857 RLU | 56.878 RLU | – |
| CS(=O)(=O)c1ccc(-c2cnc(N)c(C(=O)Nc3ccccc3)n2)cc1 [VE-821] | – | – | Maximal Response CD47 KO (RLU) [1]: 64.063 RLU; Maximal Response WT (RLU) (WT Jurkat cells): 17.653 RLU |
| O=C(O)c1ccc(O)c2ncc(N3CCOCC3)cc12 [NCGC00241036-01] | 73.954 RLU | 46.14 RLU | Δ Maximal Response CD47KO-WT [1, 4]: 27.814 |
| CC1=NN(c2ccc(C)c(C)c2)C(=O)/C1=N\Nc1cccc(-c2cccc(C(=O)O)c2)c1O [Eltrombopagolamine] | 33.444 RLU | 9.025 RLU | – |
| CC(C)(C(=O)NCC(F)(F)C(F)(F)F)C(=O)N[C@@H]1C(=O)Nc2ccccc2-c2ccccc21 [RO-4929097] | – | – | Δ LogAC50 CD47KO-WT [1, 6]: 1; AC50 [1, 5]: 18.7 µM; AC50 (WT Jurkat cells; [7]): 1.87 µM |
| Oc1cc(O)c(Cl)cn1 [Gimeracil] | 106.453 RLU | 83.034 RLU | – |
| O=C(NC1CCNCC1)c1[nH]ncc1NC(=O)c1c(Cl)cccc1Cl [AT-7519] | 27.655 RLU | 1.678 RLU | – |
| N[C@@H](Cc1ccc(O)c(O)c1)C(=O)O [Levodopa] | 77.71 RLU | 43.316 RLU | – |
| CC(C)(Cc1ccc2ccccc2c1)NC[C@@H](O)COc1cccc(Cl)c1C#N [SB262470 NPS-2143] | 97.874 RLU | 19.594 RLU | Δ Maximal Response CD47KO-WT [1, 4]: 78.28 |
| Cc1cc(Nc2ncc3c(n2)N(C)C(=O)N(c2cc(NC(=O)c4cccc(C(F)(F)F)c4)ccc2C)C3)n(C)n1 [Pluripotin] | – | – | Maximal Response CD47 KO (RLU) [1]: 85.4 RLU; Δ Maximal Response CD47KO-WT [1]: 26.442; Maximal Response WT (RLU) (WT Jurkat cells): 58.958 RLU |
| CC(/C=C/C(=O)NO)=C\[C@@H](C)C(=O)c1ccc(N(C)C)cc1 [Trichostatin A] | – | – | Δ LogAC50 CD47KO-WT [1]: 0.5; AC50 [1, 5]: 0.662 µM; AC50 (WT Jurkat cells): 0.209 µM |
| COc1cc2c(c(OC)c1OC)-c1ccc(OC)c(=O)cc1[C@@H](NC(C)=O)CC2 [Colchicine] | – | – | Maximal Response CD47 KO (RLU) [1]: 45.702 RLU; Maximal Response WT (RLU) (WT Jurkat cells): 9.264 RLU |
| CCOC(=O)Nc1ccc(NCc2ccc(F)cc2)nc1N [Flupirtine maleate] | 69.164 RLU | 44.09 RLU | – |
| C=C1c2cccc(O)c2C(=O)C2=C(O)[C@]3(O)C(=O)C(C(N)=O)=C(O)[C@@H](N(C)C)[C@@H]3[C@@H](O)[C@H]12 [Methacycline hydrochloride] | 46.269 RLU | 18.154 RLU | – |
| O=c1[nH]c(=O)n([C@H]2C[C@H](O)[C@@H](CO)O2)cc1I [Idoxuridine] | 101.516 RLU | 79.933 RLU | – |
| CCc1cnn2c(NCc3ccc[n+]([O-])c3)cc(N3CCCC[C@H]3CCO)nc12 [Dinaciclib] | 47.924 RLU | 3.92 RLU | – |
| NC(=O)NO [Hydroxyurea] | 47.712 RLU | 5.365 RLU | – |
| O=c1[nH]c(=O)n([C@H]2C[C@H](O)[C@@H](CO)O2)cc1C(F)(F)F [Trifluridine] | 57.881 RLU | 10.459 RLU | – |
| CN(C)CCN(C)C(=O)c1ccc(NC(=O)Nc2ccc(-c3nc(N4CCOCC4)c4ccn(CC(F)(F)F)c4n3)cc2)cc1 [CAY10626] | – | – | Δ LogAC50 CD47KO-WT [1, 6]: 0.8; AC50 [1, 5]: 6.62 µM; AC50 (WT Jurkat cells; [7]): 1.05 µM |

Source: patent publication US11285169B2, “Methods for modulating chemotherapeutic cytotoxicity” (The United States of America, as represented by the …, priority 2013, dated 2022)
